Our source for the binding signal values is article PMC9911399, “Two distinct binding modes provide the RNA-binding protein RbFox with extraordinary sequence specificity”.

The chains are these.
B1: CCAAGGA (DNA:RNA)
RNA: GGGAGACCGGAAUUCAGAUUGUCCCCAAGGAUUAAAUCCCGUCGUAGCCACCA
DNA 1: CAATCTGAATTCCGGTCTCCC
DNA 2: TGGTGGCTACGACGGGATT
B2: AGUACGG (DNA:RNA)
RNA: B1 RNA with C25A, C26G, A27U, G29C, A31G
DNA 1: CAATCTGAATTCCGGTCTCCC
DNA 2: TGGTGGCTACGACGGGATT
B3: AAAAUAC (DNA:RNA)
RNA: B1 RNA with C25A, C26A, G29U, G30A, A31C
DNA 1: CAATCTGAATTCCGGTCTCCC
DNA 2: TGGTGGCTACGACGGGATT
B4: GUCCUGC (DNA:RNA)
RNA: B1 RNA with C25G, C26U, A27C, A28C, G29U, A31C
DNA 1: CAATCTGAATTCCGGTCTCCC
DNA 2: TGGTGGCTACGACGGGATT
B5: UAAAGUG (DNA:RNA)
RNA: B1 RNA with C25U, C26A, G30U, A31G
DNA 1: CAATCTGAATTCCGGTCTCCC
DNA 2: TGGTGGCTACGACGGGATT
B6: UCUAAGC (DNA:RNA)
RNA: B1 RNA with C25U, A27U, G29A, A31C
DNA 1: CAATCTGAATTCCGGTCTCCC
DNA 2: TGGTGGCTACGACGGGATT
B7: ACCCGCU (DNA:RNA)
RNA: B1 RNA with C25A, A27C, A28C, G30C, A31U
DNA 1: CAATCTGAATTCCGGTCTCCC
DNA 2: TGGTGGCTACGACGGGATT
B8: GGAAUUU (DNA:RNA)
RNA: B1 RNA with C25G, C26G, G29U, G30U, A31U
DNA 1: CAATCTGAATTCCGGTCTCCC
DNA 2: TGGTGGCTACGACGGGATT
B9: UGGAGUA (DNA:RNA)
RNA: B1 RNA with C25U, C26G, A27G, G30U
DNA 1: CAATCTGAATTCCGGTCTCCC
DNA 2: TGGTGGCTACGACGGGATT
B10: CGCUCCG (DNA:RNA)
RNA: B1 RNA with C26G, A27C, A28U, G29C, G30C, A31G
DNA 1: CAATCTGAATTCCGGTCTCCC
DNA 2: TGGTGGCTACGACGGGATT
B11: CUCGCAC (DNA:RNA)
RNA: B1 RNA with C26U, A27C, A28G, G29C, G30A, A31C
DNA 1: CAATCTGAATTCCGGTCTCCC
DNA 2: TGGTGGCTACGACGGGATT
B12: GUACUGC (DNA:RNA)
RNA: B1 RNA with C25G, C26U, A28C, G29U, A31C
DNA 1: CAATCTGAATTCCGGTCTCCC
DNA 2: TGGTGGCTACGACGGGATT
B13: UUAAGGU (DNA:RNA)
RNA: B1 RNA with C25U, C26U, A31U
DNA 1: CAATCTGAATTCCGGTCTCCC
DNA 2: TGGTGGCTACGACGGGATT
B14: CCUAGGA (DNA:RNA)
RNA: B1 RNA with A27U
DNA 1: CAATCTGAATTCCGGTCTCCC
DNA 2: TGGTGGCTACGACGGGATT
B15: AUCGUAG (DNA:RNA)
RNA: GGGAGACCGGAAUUCAGAUUGUCCAUCGUAGUUAAAUCCCGUCGUAGCCACCA
DNA 1: CAATCTGAATTCCGGTCTCCC
DNA 2: TGGTGGCTACGACGGGATT
B16: GUCCUCG (DNA:RNA)
RNA: B15 RNA with A25G, G28C, A30C
DNA 1: CAATCTGAATTCCGGTCTCCC
DNA 2: TGGTGGCTACGACGGGATT
B17: AUGGUAU (DNA:RNA)
RNA: B15 RNA with C27G, G31U
DNA 1: CAATCTGAATTCCGGTCTCCC
DNA 2: TGGTGGCTACGACGGGATT
B18: CGUUAAG (DNA:RNA)
RNA: B15 RNA with A25C, U26G, C27U, G28U, U29A
DNA 1: CAATCTGAATTCCGGTCTCCC
DNA 2: TGGTGGCTACGACGGGATT
B19: CAUUCCC (DNA:RNA)
RNA: B1 RNA with C26A, A27U, A28U, G29C, G30C, A31C
DNA 1: CAATCTGAATTCCGGTCTCCC
DNA 2: TGGTGGCTACGACGGGATT
B20: ACUCAUG (DNA:RNA)
RNA: B15 RNA with U26C, C27U, G28C, U29A, A30U
DNA 1: CAATCTGAATTCCGGTCTCCC
DNA 2: TGGTGGCTACGACGGGATT
B21: GAAGUCC (DNA:RNA)
RNA: B15 RNA with A25G, U26A, C27A, A30C, G31C
DNA 1: CAATCTGAATTCCGGTCTCCC
DNA 2: TGGTGGCTACGACGGGATT
B22: ACCAGAA (DNA:RNA)
RNA: B1 RNA with C25A, A27C, G30A
DNA 1: CAATCTGAATTCCGGTCTCCC
DNA 2: TGGTGGCTACGACGGGATT
B23: AUAUUUG (DNA:RNA)
RNA: B15 RNA with C27A, G28U, A30U
DNA 1: CAATCTGAATTCCGGTCTCCC
DNA 2: TGGTGGCTACGACGGGATT
B24: UCCACGC (DNA:RNA)
RNA: B1 RNA with C25U, A27C, G29C, A31C
DNA 1: CAATCTGAATTCCGGTCTCCC
DNA 2: TGGTGGCTACGACGGGATT
B25: CCGCAAG (DNA:RNA)
RNA: B15 RNA with A25C, U26C, C27G, G28C, U29A
DNA 1: CAATCTGAATTCCGGTCTCCC
DNA 2: TGGTGGCTACGACGGGATT
B26: CAGUAGG (DNA:RNA)
RNA: B1 RNA with C26A, A27G, A28U, G29A, A31G
DNA 1: CAATCTGAATTCCGGTCTCCC
DNA 2: TGGTGGCTACGACGGGATT
B27: GGCGCGG (DNA:RNA)
RNA: B15 RNA with A25G, U26G, U29C, A30G
DNA 1: CAATCTGAATTCCGGTCTCCC
DNA 2: TGGTGGCTACGACGGGATT
B28: GGGAGCC (DNA:RNA)
RNA: B1 RNA with C25G, C26G, A27G, G30C, A31C
DNA 1: CAATCTGAATTCCGGTCTCCC
DNA 2: TGGTGGCTACGACGGGATT
B29: GCUGUCU (DNA:RNA)
RNA: B15 RNA with A25G, U26C, C27U, A30C, G31U
DNA 1: CAATCTGAATTCCGGTCTCCC
DNA 2: TGGTGGCTACGACGGGATT
B30: CGCCAGU (DNA:RNA)
RNA: B1 RNA with C26G, A27C, A28C, G29A, A31U
DNA 1: CAATCTGAATTCCGGTCTCCC
DNA 2: TGGTGGCTACGACGGGATT
B31: AAUCUCC (DNA:RNA)
RNA: B15 RNA with U26A, C27U, G28C, A30C, G31C
DNA 1: CAATCTGAATTCCGGTCTCCC
DNA 2: TGGTGGCTACGACGGGATT

Where a chain is given by its changes, count along the chain named. This is one part of the list.

This test deals with T1, RBFOX1 RRM (Homo sapiens, UniProt Q9NWB1 109-208).
T1 sequence: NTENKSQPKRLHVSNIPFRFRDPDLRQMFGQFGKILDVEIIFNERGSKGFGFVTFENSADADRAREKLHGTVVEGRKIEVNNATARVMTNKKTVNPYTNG
Description: EMSA; HiTS-Eq, 1 nM pool, 10 min; buffer printed only for the single-RNA assays: 10 mM Tris pH 7.5, 150 mM NaCl, 3.4 mM EDTA, 0.001% NP-40, 30 C. Particulars: tags: His6 N-terminal (pET28a); label: 5' 32P. The procedure, abridged:
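A pool of RNA with 7 randomized nucleotides, 5′-radiolabelled and with DNA-annealed flanks, was equilibrated at 1 nM for 10 min in 50 µL with purified RbFox RRM, wild type or mutant, across increasing protein concentrations. Free RNA was separated by 8% native PAGE, excised, reverse-transcribed, barcoded by PCR and sequenced. Relative association constants were obtained from read-count changes of each RNA species versus the control reaction and normalised to the cognate motif.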
A general note: In EMSA bound probe runs differently from free probe, usually more slowly.
Consider B1, for which the binding signal was 0.0126 KA relative to UGCAUGU.
Consider B2, for which the binding signal was 0.00845 KA relative to UGCAUGU.
For B3, the binding signal was 0.000357 KA relative to UGCAUGU.
As for B4, the figure is 0.0203 KA relative to UGCAUGU.
Regarding B5, the binding signal is 0.00935 KA relative to UGCAUGU.
For B6, the binding signal is 0.00771 KA relative to UGCAUGU.
As for B7, the binding signal was 0.00342 KA relative to UGCAUGU.
For B8, the binding signal was 0.0185 KA relative to UGCAUGU.
Consider B9, for which the binding signal is 0.0179 KA relative to UGCAUGU.
The figure for B10 is 0.00772 KA relative to UGCAUGU.
For B11, the binding signal is 0.0113 KA relative to UGCAUGU.
As to B12, the binding signal was 0.017 KA relative to UGCAUGU.
As to B13, the binding signal is 0.0121 KA relative to UGCAUGU.
With B14, the binding signal was 0.00895 KA relative to UGCAUGU.
For B15, the binding signal was 0.00756 KA relative to UGCAUGU.
B16: the binding signal is 0.0155 KA relative to UGCAUGU.
The figure for B17 is 0.00785 KA relative to UGCAUGU.
Turning to B18, the binding signal was 0.00898 KA relative to UGCAUGU.
As for B19, the binding signal is 0.00107 KA relative to UGCAUGU.
For the molecule B20, the binding signal was 0.00349 KA relative to UGCAUGU.
For the molecule B21, the binding signal was 0.00952 KA relative to UGCAUGU.
As for B22, the binding signal is 0.00183 KA relative to UGCAUGU.
B23: the binding signal is 0.0099 KA relative to UGCAUGU.
Consider B24, for which the binding signal is 0.00643 KA relative to UGCAUGU.
As to B25, the binding signal was 0.0135 KA relative to UGCAUGU.
For B26, the binding signal is 0.00953 KA relative to UGCAUGU.
As to B27, the binding signal is 0.0251 KA relative to UGCAUGU.
On to B28, for which the binding signal was 0.0283 KA relative to UGCAUGU.
Take B29: the binding signal is 0.0156 KA relative to UGCAUGU.
Take B30: the binding signal was 0.0104 KA relative to UGCAUGU.
As for B31, the figure is 0.00363 KA relative to UGCAUGU.
